The values below come from PubChem BioAssay AID1346428 (National Center for Advancing Translational Sciences (NCATS), 2018).

“And” between values parts separate entries of the source, which are not always exact repeats. Identical values can stand only once. Out of some 48,000 compounds screened, about 1,200 (2.5%) were called active. About 2% were inconclusive and are not listed.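 The calls were made as follows: active = activation of at least 60% and not above a set upper limit (about 1 call in 100 departs from these limits); inconclusive = activation of 40% to 60%, or above that upper limit; inactive = activation under 40%.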 The list shows a part of the results.

Sequence of UniProt O75388 (O75388 whole entry, looked up): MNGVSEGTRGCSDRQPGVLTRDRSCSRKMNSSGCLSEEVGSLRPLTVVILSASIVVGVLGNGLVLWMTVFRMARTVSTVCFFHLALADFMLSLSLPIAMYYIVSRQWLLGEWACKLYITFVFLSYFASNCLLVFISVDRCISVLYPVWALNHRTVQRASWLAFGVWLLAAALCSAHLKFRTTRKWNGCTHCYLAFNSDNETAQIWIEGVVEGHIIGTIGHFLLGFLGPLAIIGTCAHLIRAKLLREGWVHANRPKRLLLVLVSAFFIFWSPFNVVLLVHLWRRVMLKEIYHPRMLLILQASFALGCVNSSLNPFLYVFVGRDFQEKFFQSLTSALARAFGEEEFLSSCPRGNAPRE

This assay concerns the target Probable G-protein coupled receptor 32 (Homo sapiens) (UniProt O75388). The experiment in a line: qHTS for Agonists of Human Resolvin D1 Receptor DRV1. Also: 0% is about no effect. As to conditions: CHO-K1 GPR32 beta-arrestin PathHunter luminescence, 90 min; at 76.9 µM; stronger effect = higher value; zero percent set by DMSO-only wells. An outline of the steps:
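CHO-K1 cells stably expressing ProLink-tagged GPR32 and Enzyme Activator-tagged beta-arrestin were seeded at 2,500 cells/well overnight, exposed to compounds for 90 min at 37 °C, then read by beta-Gal complementation chemiluminescence after 1 h detection reagent.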
For orientation: Quantitative high-throughput screening tests each substance at several concentrations.
Turning to `COc1ccc(CCNC(=O)CSc2cn(CCNC(=O)c3c(F)cccc3F)c3ccccc23)cc1OC`, the activation is inactive: 37.3%. As for `CN(C)c1ccc(NC(=O)Cn2c(SCc3ccc(F)cc3)nc3ccncc32)cc1`, the figure is inactive: -19.2%; as for `CC(=O)Nc1ccc(NS(=O)(=O)c2c(C(=O)N3CCCCCC3)c(C)n(C)c2C)cc1`, inactive: -0.914%. With `COC(=O)c1ccc(NC(=O)c2cc(S(=O)(=O)N3CCOCC3)cn2C)cc1`, the activation is inactive: 0.71%.

As to `Cc1ccccc1OCC(=O)Nc1ccc(S(=O)(=O)N(Cc2ccccc2)c2ccccc2)cc1`, the activation was inactive: -5.37%. On to `COc1ccc(Cn2c(=O)c3oc4ccccc4c3n(CC(=O)Nc3c(C)cccc3C)c2=O)cc1`, for which the activation was inactive: -5.25%.

As to `Cc1ccc(C(=O)COC(=O)CCC(=O)Nc2ccc(Oc3ccccc3)cc2)cc1`, the activation is inactive: -12.2%. As for `COc1ccc(-c2nc3c(c(SCc4ccc(Br)cc4)n2)Cc2c(CO)cnc(C)c2O3)cc1`, the figure is inactive: 27.3%; as for `Cc1ccc(OCCSc2nnc(-c3cccs3)o2)cc1`, inactive: -1.23%. In the case of `Cc1oc2cc3oc(=O)c(CCC(=O)NCCc4ccccc4F)c(C)c3cc2c1C`, the activation was inactive: -14.5%.

With `CCC(=O)N1c2ccccc2CC1C(=O)NCc1ccc(CC)cc1` (stereo not drawn), the activation was inactive: 5.55%. Take `CN1CCN(C(=O)c2cnn(-c3ccc(F)cc3F)c2C2CCN(C(=O)OC(C)(C)C)CC2)CC1`: the activation was inactive: -10%. The figure for `COc1ccc(NC(=O)Nc2nnc(N3CCCC3)s2)cc1` is inactive: -7.35%; for `Cc1ccc2c(c1)c1c(c(=O)n(-c3ccccc3)c(=O)n1Cc1ccccc1C)n2C` it is inactive: 5.72%. The figure for `Cc1cc(C)cc(N(CC(=O)NCCc2ccc(Cl)cc2)S(=O)(=O)c2c(C)noc2C)c1` is inactive: -3.03%. The figure for `Cc1ccc(NC(=O)c2c(C)oc3ccc(O)c(CN4CCOCC4)c23)cc1` is inactive: 6.25%; for `CC(=O)c1ccc(S(=O)(=O)NC(=O)NC2CCCCC2)cc1` it is inactive: 1.33% and inactive: -0.322%; for `Cc1ccc2c(=O)cc(C(=O)N(Cc3ccc(C(C)(C)C)cc3)C3CCS(=O)(=O)C3)oc2c1` (stereo not drawn) it is inactive: -2.51%.

For `CCC(=O)N1CCN(C(=O)c2ccccc2)CC1`, the activation was inactive: -1.9%.

On to `CC(=O)N1CCCC1c1nc2ccccc2n1Cc1cccc(C)c1` (stereo not drawn), for which the activation is inactive: -4.46%.

`COc1ccc(OCC(=O)NCc2ccc3c(c2)CCN3C(=O)c2cccc(C)c2)cc1`: the activation is inactive: -4.27%. The figure for `COc1ccc2c(c1)c(CC(=O)Nc1c(C)cccc1C)c(C)n2C(=O)c1ccc(Cl)cc1` is inactive: 14.7%; for `CSc1ccc(CCNC(=O)c2ccc(-n3c(C)cc4c3CCC(C)C4)cc2)cc1` (stereo not drawn) it is inactive: -1.65%; for `Cc1cc(C)cc(NC(=O)CCn2cnc3ccccc3c2=O)c1` it is inactive: 4.32%. As for `CCOc1ccccc1NC(=O)Cn1c(=O)n(-c2ccc(C)cc2)c(=O)c2c1cnn2C`, the figure is inactive: 19.3%; as for `CCc1cccc(NC(=O)CC(c2ccc(OC)cc2)N2Cc3ccccc3C2=O)c1` (stereo not drawn), inactive: -18%; as for `CC(C)c1ccc(C2NC(=O)c3c(sc4c3CCN(C)C4)N2)cc1` (stereo not drawn), inactive: -16.5%. The figure for `CCOc1ccc(N(CC(=O)OC)S(=O)(=O)c2ccc3c(c2)n(C)c(=O)c(=O)n3C)cc1` is inactive: -5.1%. Turning to `CCC(C)NC(=O)Cn1c(=O)n(-c2ccc(Cl)cc2)c(=O)c2c3c(sc21)CCCC3` (stereo not drawn), the activation is inactive: -9.23%. The figure for `Cc1ccc(-n2nnnc2SCC(=O)NCCc2ccccc2)cc1C` is inactive: 20.6%; for `CCCCC(=O)OC1=CN(Cc2ccccc2)S(=O)(=O)c2ccccc21` it is inactive: -22.1%. Take `Cc1ccc(C)c(N2CCN(C(=O)c3c(C)oc4nc(C)nc(N5CCOCC5)c34)CC2)c1`: the activation is inactive: -17.1%.

With `CCc1nnc(NC(=O)CSc2nccn2Cc2ccc(Cl)cc2)s1`, the activation is inactive: 13.2%. The figure for `CCCc1nnc(SCc2cc(=O)c3c(C)cc(C)cc3[nH]2)n1C` is inactive: -10.2%; for `C=CCC(CC=C)(CNC(=O)C(=O)Nc1ccc(Br)cc1)c1ccc(OC)c(OC)c1` it is inactive: -3.56%.

For `CCCN[C@H]1CCc2nc(N)sc2C1`, the activation is inactive: 3.36%. As for `Cc1ccc(OCCCn2c(-c3ccc(Cl)cc3)nc3ccccc3c2=O)cc1C`, the figure is inactive: -3.22%; as for `O=C(NCC(c1ccc2c(c1)OCO2)N1CCN(c2ccccc2)CC1)c1ccc(F)c(F)c1` (stereo not drawn), inactive: -20.2%; as for `O=C(Nc1ccc(F)cc1F)C1CCN(C(=O)c2cnn(-c3ccccc3)c2-n2cccc2)CC1`, inactive: 11.7%. As for `O=C(NCc1cccc(Cl)c1)c1cnc(N2CCOCC2)c2ccccc12`, the figure is inactive: -20.2%. The figure for `Cn1cccc1-c1cc2n(n1)CCC(=O)N2CCCC(=O)NCc1cccc(Cl)c1` is inactive: 2.16%. With `CCOc1ccc(NS(=O)(=O)c2c(C)nc3sc(CC)nn3c2=O)cc1`, the activation was inactive: 12%.

Turning to `COCCNC(=O)c1ccc2c(c1)ncn2-c1cc(C)ccc1OC`, the activation is inactive: 3.17%. As for `CCc1ccc(CNC(=O)Cn2nc(C)c3nn(-c4ccc(Cl)cc4)c(C)c3c2=O)cc1`, the figure is inactive: -11.1%; as for `COc1cc(NC(=O)Cc2noc3ccccc23)cc(OC)c1OC`, inactive: -18.5%. The figure for `O=C(CN1C(=O)COc2ccc(S(=O)(=O)N3CCCCCC3)cc21)N1CCN(c2ccc(Cl)cc2)CC1` is inactive: 0.778%; for `CCOC(=O)c1ccc(NC(=O)CC(C)n2nc(C)cc2C)cc1` (stereo not drawn) it is inactive: -3.49%; for `Cc1ccc(C)c(Nc2nn3c(=O)c4ccc(C(=O)NCc5ccccc5)cc4nc3s2)c1` it is active: 63.1%. In the case of `COc1ccc(CNC(=O)c2cc(-c3ccc(Br)s3)nc3ccccc23)cc1`, the activation is inactive: 3.84%. As for `O=c1[nH]c(C2CCCN(S(=O)(=O)c3ccccc3)C2)nc2c1nnn2Cc1ccccc1Br` (stereo not drawn), the figure is inactive: -23.6%; as for `CCOC(=O)c1cccc(NC(=O)Nc2c(C)n(C)n(-c3ccccc3)c2=O)c1`, inactive: -16.4%; as for `Cc1cccc(-n2ncc3c(NNC(=O)c4ccccc4Cl)ncnc32)c1`, inactive: -0.104%. As for `COc1ccc(-c2ccc(=O)n(CC(=O)Nc3cc(OC)ccc3OC)n2)cc1`, the figure is inactive: -12.3%; as for `CCCCN(CC)CCCNC(=O)c1cn(C)c(=O)c2c1c1ccccc1n2C`, inactive: -19.6%; as for `Cc1cccc(C)c1NC(=O)Cn1cc(C(=O)C2CC2)c2ccccc21`, inactive: -8.79%. As for `Cc1nn(CCC(=O)Nc2cccc(C#N)c2)c(C)c1S(=O)(=O)N1CCCCC1`, the figure is inactive: -10.4%; as for `Cc1ccc(C)c(CN2C(=O)c3ccccc3S(=O)c3ccc(C(=O)N4CCCCC4)cc32)c1` (stereo not drawn), inactive: -7.56%; as for `CCc1cnc2c(c1SCc1cc(OC)cc(OC)c1)c(=O)n(C)c(=O)n2C`, inactive: -1.2%.

With `COc1ccc(OC)c(S(=O)(=O)NCCS(=O)(=O)N2CCN(c3ccccc3F)CC2)c1`, the activation was inactive: -11.6%. For `CCS(=O)(=O)NCCc1csc2nc(-c3ccc(OC)cc3)nn12`, the activation was inactive: -6.87%. The figure for `Cc1ccc(OCCn2c(C3CC(=O)N(Cc4ccc(F)cc4)C3)nc3ccccc32)c(C)c1` (stereo not drawn) is inactive: -34.6%; for `COc1ccccc1/C=C/C(=O)Nc1nc2n(n1)C(c1ccc(F)cc1)C=C(c1ccccc1)N2` (stereo not drawn) it is inactive: -15.8%. The figure for `CSc1ncc(C(=O)NCc2cccc(C)c2)c(-c2ccccc2)n1` is inactive: -11.8%.

In the case of `Cc1ccc(C(=O)C(=O)O)cc1C`, the activation is inactive: 3.88%. As for `O=S(=O)(NCC(c1ccccc1)N1CCc2ccccc21)c1ccc(Cl)cc1` (stereo not drawn), the figure is inactive: -10.3%; as for `C=CCc1ccccc1OCCSc1nc(-c2ccccc2F)nc2cc(=O)[nH]n12`, inactive: -27%.

As to `COC(=O)c1ccc(NC(=O)CC2C(=O)N(c3ccccc3)C(=O)N2Cc2cccs2)cc1` (stereo not drawn), the activation is inactive: -14.6%. The figure for `CCN(CC)C(=O)c1sc2c(c1C)c(=O)n(-c1ccc(OC)cc1OC)c(=O)n2CC(=O)Nc1ccccc1` is inactive: -10.9%; for `Cc1cccc(N2CCN(c3nc4ccccc4c4nnc(C)n34)CC2)c1C` it is inactive: 3.58%. As for `COc1ccc(CNC(=O)Cn2cccc2C(=O)c2ccccc2C)cc1`, the figure is inactive: -18.4%; as for `COc1ccc(C(=O)c2cn(Cc3ccccc3OC)c3cc4c(cc3c2=O)OCO4)cc1`, inactive: 17.1%; as for `Cc1cccc(NC(=O)c2c(NC(=O)c3ccccc3)sc3c2CCC3)c1`, inactive: 9.32%. As for `Cc1cc(C)cc(-n2ccnc2SCC(=O)Nc2ccccc2F)c1`, the figure is inactive: -10.4%.

Turning to `COc1ccc(CNC(=O)CCc2c(C)nc3cc(-c4ccc(OC)cc4OC)nn3c2C)cc1`, the activation is inactive: -1.98%. The figure for `CC(C)=CCNc1ncnc2c1ncn2[C@@H]1O[C@H](CO)[C@@H](O)[C@H]1O` is inactive: 22.9%. The figure for `Fc1ccc(-c2cc(-c3ccc(F)cc3)c3c(n2)-c2cc(F)ccc2OC3)cc1` is inactive: -3.83%; for `Fc1ccc(Nc2nc(-c3cccc(Cl)c3)c3c(n2)-c2ccccc2OC3)c(F)c1` it is inactive: -5.01%. As for `Cc1oc(=O)oc1COC(=O)[C@@H]1N2C(=O)[C@@H](NC(=O)[C@H](N)c3ccccc3)[C@H]2SC1(C)C`, the figure is inactive: 24.3%; as for `Cc1cccc(NC(=O)Cn2c(=O)n(CC3CCC(C(=O)NCCc4ccccc4)CC3)c(=O)c3ccccc32)c1` (stereo not drawn), inactive: 7.66%. Take `CCOC(=O)c1cc(-c2ccc(F)cc2)n(CCC(=O)NC2CCC(C)CC2)c1C` (stereo not drawn): the activation is inactive: -20%. As for `CCc1ccc(NC(=O)CSc2nc(-c3ccc(C)cc3)nc3c2Cc2c(CO)cnc(C)c2O3)cc1`, the activation was inactive: -5.41%. As for `CCOc1ccc2nc(N3CCCC(C(=O)Nc4ccccc4CC)C3)sc2c1` (stereo not drawn), the figure is inactive: -6.59%; as for `CCc1ccc(-c2nc3cc(NC(=O)c4ccc(C)c(C)c4)ccc3o2)cc1`, inactive: -8.88%.
